# Reference: the RNAGym collection of RNA variant scans (doi:10.1093/nar/gkz1192)
# The source gives no read counts; variants with many changes may rest on few reads.
# B1: CPEB3 Ribozyme (parent)
# chain: UAACAGGGGGCCACAGCAGAAGCGUUCACGUCGCAGCCCCUGUCAGAUUCUGGUGAAUCUGCGAAUUCUGCUGUAUAUCUC
# Variants of: B1
# Experiment: self-cleavage, relative activity (ratio to wild type); higher = more cleavage; in vitro, sequencing
# In short: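 After error-prone PCR and barcoding, CPEB3 ribozyme mutant libraries were transcribed with T7 RNA polymerase at 37°C for 5 hours, then given 15 min with DNase I before an EDTA stop, and they cleaved during both steps. Reverse transcription with template switching preceded Illumina sequencing. Relative activity divides a variant's cleaved/total read fraction by the unmutated ribozyme's. At least 5 reads were required per variant, and three batches were averaged.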
row,Variant,self-cleavage
1,C17A A35G C59A G61A,0.18
2,A18C U48C G52A,0.33
3,A18C U25C U51A U72C,0.13
4,A18C U51C A56G U80C,0.34
5,A18G A20U A45G,0.07
6,C17A U26C C37A,0.52
7,C17A U43C A47G U49C U54C,0.14
8,A18C U41C A57C U60C U67A,0.02
9,A18C U25A C34G C38G U48C U54A A64G,0.04
10,A18C A20G A57U,0.23
11,A18C A21C U31C C37U U67C,0.01
12,A18C C32U A47G C50A U54C,0.11
13,A18G A21G A28G,0.45
14,C17G C23G U43C A65G U80C,0.11
15,G16U U41C U72C,0.51
16,A18C G33A U48C U49C U54C C62U,0.09
17,C17U U41A C44U G63A,0.12
18,C17U A18G A65G A77G,0.19
19,A18G A20U U72C,0.39
20,A18C G22C A28U U78C,0.06
21,C17U A45U U60C U78C,0.29
22,C17U U26A A35U A64U,0.28
23,A18C A56G U72C,0.26
24,A18C A21G U54C U76A,0.22

row,Variant,self-cleavage
1,C17G A28G A57G U60C U72A,0.06
2,G16U U26A U43A A64U A65G,0.05
3,C17A U31C U69G,0.34
4,C17G A18U C23G U51C,0.04
5,A18C C32U U41C A45G U66C,0.04
6,C17U U69A U72A,0.15
7,A18G A21C A28U A35G A45G A56G A75G,0.03
8,C17U U26C A56G U72A,0.47
9,G16U U48C C59U,0.22
10,A18C A56U C68A,0.12
11,C17U U31C U60A,0.33
12,A18G A20C U58A U72C,0.08
13,C17G A28U C40U C68A U74C,0.18
14,C17U A21G A28G U43C C44U A77U,0.23
15,C17A A21G A35G U41C U48C U72A,0.08
16,C17U U26C A56G U74A U78C,0.44
17,C17U C39A A57C A77G,0.14
18,C17G A35U C39A A57G U72C,0.07
19,A18C U51A U72C,0.54
20,A18G A20G U58C A64G U74A,0.19
21,A18C U51G A64U U72A,0.15
22,A18G A20G U26A A35G,0.65
23,A18C U26A G30U C38U U67C,0.05
24,A18C A28C G36A C71U,0.07

row,Variant,self-cleavage
1,A18G A20G U66C,0.56
2,C17U U54C U76C,0.75
3,C17G U31A G36C U69C U72A U78C U80A,0.07
4,C17A A35G U54A,0.7
5,C17U C44A A56G U67C U78C,0.11
6,C17G C40A A47G,0.09
7,C17A A47G U54A U66C C81U,0.07
8,C17U U43C U60A A75U,0.08
9,A18C C40A U72C,0.3
10,A18G A20U C23U U31C U43A A45G C71U,0.02
11,A18G A20U U48C U49C U74C,0.1
12,C17A A21G G24A A45G U60C U69C U80A,0.03
13,C17A U49C U66C,0.16
14,C17U U41A A47U,0.49
15,A18C U43C C71G A77U,0.06
16,C17U U67A U80C,0.4
17,A18G A20G A28G U60C U78C,0.34
18,C17U U43C U74C,0.46
19,C17U C40A A47G A75U,0.17
20,A18G A21G A45U U48C U66G,0.16
21,C17G G33U U43C U58A U74A,0.1
22,C17A A35G U66C,0.25
23,C17G A18G A45U U69C U72C U74C,0.16
24,C17A U26A C40U A47U A56G A75G,0.09

row,Variant,self-cleavage
1,C17U U25C A45G U60A,0.18
2,A18G A20G G36U U80A,0.09
3,A18C A28U U51G U54C,0.18
4,A18C U41A U48C,0.23
5,A18C A28U U41C,0.17
6,A18C C32U A35G A45G,0.04
7,C17U A20G U60C G70A,0.26
8,C17U A20G C32G A35U A77U,0.08
9,C17A U43C U49C A57G U76C,0.06
10,C17U A35G U41A U49A U67C,0.09
11,C17U A28U U41C U58A,0.16
12,A18C G33A U43C U66C U69C U72C U74A,0.09
13,A18C G30A A35G,0.21
14,C17A G42A U80C,0.21
15,A18C U26C A45G A57G,0.34
16,C17G A20U C39U,0.35
17,C17U C32U A65G G70A,0.09
18,A18C U43C U51C A64U U78C,0.1
19,A18G A20U A21G U51C,0.08
20,A18C A28U U54C,0.28
21,C17A G24U U25C U41C U51C U54A,0.43
22,A18C G22A A35G,0.06
23,C17U A64G U78C,0.39
24,C17U A45G U49A,0.11

row,Variant,self-cleavage
1,A18G A20G U25C,0.6
2,C17G U31A U51C,0.14
3,C17U A21G A28C G33A A64G U74A,0.04
4,A18G A20U C23U A35G U41A U80C,0.02
5,A18C U25C U72C,0.17
6,A18G A20U C39A U60C A65G U72C U78C,0.02
7,C17U U26C U69A A77C,0.16
8,C17U A20G A35G U60C U78G,0.31
9,C17U U25G U41C A75U,0.07
10,C17U A28G C32A U43C G55C,0.17
11,G16U U43A A45G U48A U49A,0.12
12,A18C G19U A35U C40G U49C,0.07
13,C17U U25C U48A U67C U69A,0.05
14,A18C G52U A64G,0.34
15,C17G C27G A47G U51G U80A,0.06
16,C17G U25C U48C G55A,0.09
17,A18G A20G A47U A56G,0.3
18,C17A A18G C29A U51A U54G A64U,0.11
19,A18C C32U A45C A65G,0.08
20,C17U A20U U31G U43C U67C,0.17
21,A18G A20U A45G U49C,0.25
22,C17G U72A U80C,0.51
23,C17G U26C U69A G70A U74A,0.01
24,A18C A28G U72A,0.15

row,Variant,self-cleavage
1,C17U A45U U76C,0.29
2,A18C U49A A75U,0.49
3,C17G A35G U41A C44G G53U,0.14
4,A18C U78A C79G,0.24
5,A18G A21G A35G C44U U72C,0.07
6,A18C U25C U69A U76A,0.15
7,A18C A20G A21G U26A U41A U67A A75G,0.05
8,A18G A20G A28U,0.35
9,A18C A28G U31C U41C U69C U72A,0.07
10,G16U U72C C81U,0.76
11,A18G A21G A65G A75U U76A A77G,0.24
12,A18C C23U A45C U48C G70U U78C,0.15
13,C17G C50U U74A,0.67
14,A18G A20G U54C,0.37
15,C17A U58A U74A,0.11
16,C17G U31C A45G U80C,0.1
17,C17U U26C U60C A77U,0.11
18,A18G A21C A45U U54A A65G,0.08
19,G16U U43G U51C,0.16
20,C17U U25C U48C A64G U78C,0.18
21,C17U A35U C38A,0.25
22,C17G U51C A64U U67C,0.14
23,C17U U31C U60C A64U A77G,0.17
24,C17G U25C U26G U67A,0.08

row,Variant,self-cleavage
1,C17U C29U C40U U67C,0.04
2,A18C U26C G53A U72A,0.09
3,A18G A21G A35G U66C,1.16
4,C17U A28U U41A A47G G63A A64G U72C,0.05
5,A18C U26C G55A,0.07
6,C17U A35G A45C U67C,0.12
7,C17G U26A A45G U51A U69C A77U,0.06
8,A18G A21G A45U A57G U60C,0.06
9,C17U A18G A35G,0.68
10,A18C U26C A56U A64U,0.18
11,A18G A20U A47G U54A,0.18
12,G16U U41A C62U,0.1
13,A18G A20G A45U,0.36
14,A18G A20G C32U A45G,0.06
15,A18G A20G C34G U48C U80C,0.39
16,A18G A21G A47G,0.36
17,C17U A47G U48C U74C,0.22
18,C17U A20G U58A U67C,0.15
19,C17U U41C G46U A65G,0.1
20,C17U U25C A57G U74C,0.27
21,C17U G24C A28U U51A U67G,0.1
22,C17U A35G A47G,0.93
23,A18C C27U U51C A56G U80C,0.18
